Laboratory results published in PubChem BioAssay AID894 (National Center for Advancing Translational Sciences (NCATS), 2007).
“And” between values parts separate entries of the source, which are not always exact repeats. Equal entries are not always repeated. Among all 150,000 compounds or so, about 6,500 (4.3%) were called active. This list was built around the results that the source calls inconclusive (neither active nor inactive); the mix of calls is not that of the screen. Calls come from the whole dose curve; as a rule, active = well fitted inhibition curve with a large enough effect (not every such curve was filed as active); inconclusive = small, poorly fitted or top-dose-only effect, or another doubt; inactive = no such curve, though single readings can be large or run the other way. Potencies beside an inconclusive call are fits to weak or partial responses and may not hold up.

Target: 15-hydroxyprostaglandin dehydrogenase [NAD(+)] (Homo sapiens) (UniProt P15428)
Assay: qHTS Assay for Inhibitors of HPGD (15-Hydroxyprostaglandin Dehydrogenase)
Conditions: purified HPGD, NADH fluorescence kinetic, PGE2 substrate; activity change, negative = inhibition: stronger effect = lower value
In short: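 NADH formation kinetics: reaction with 30 uM PGE2 and 1 mM NAD+ (final), 20 nM enzyme, Tris-HCl pH 8 with Tween 20, after 15 min compound preincubation at room temperature. Fluorescence change, last versus first of five reads.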
% is set by controls: 0 for no effect and ±100 for the full control effect; potency is the fitted concentration of half-maximal effect; tags give direction and shape of the fitted curve.

UniProt P15428, sequence (P15428 whole entry, looked up): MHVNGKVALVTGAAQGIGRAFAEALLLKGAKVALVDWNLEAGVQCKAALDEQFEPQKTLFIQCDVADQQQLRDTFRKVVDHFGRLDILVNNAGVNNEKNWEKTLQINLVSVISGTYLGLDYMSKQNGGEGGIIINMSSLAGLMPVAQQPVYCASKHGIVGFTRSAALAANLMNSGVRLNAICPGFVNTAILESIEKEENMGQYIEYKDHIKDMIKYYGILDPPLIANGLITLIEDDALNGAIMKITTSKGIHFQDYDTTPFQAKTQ

Potency, active:
CC1CCN(C(=O)C(Cc2ccccc2)n2cccc2)CC1 (configuration not stated) 28.2 µM, O=C(c1ccc(CNc2c(N3CCOCC3)c(=O)c2=O)cc1)N1CC=C(c2ccccc2)CC1 25.1 µM, Cc1cccc(C(=O)N2CCCCCC2)c1 5.01 µM, Cc1cccc(-n2ncc3c(N4CCC(C)CC4)ncnc32)c1 28.2 µM, CCN(CC)CCN1C(=O)C(=O)/C(=C(/O)c2cccc(OC)c2)C1c1ccccn1 (configuration not stated) 31.6 µM

Potency, inconclusive:
CCOC(=O)c1sc(NC(=O)Nc2ccc(Cl)cc2)nc1C 35.5 µM [inhibitor, partial curve], COc1ccc(N(C(=O)c2cccnc2)S(=O)(=O)c2ccc3c4c(cccc24)C(=O)N3C)cc1 31.6 µM [inhibitor, single point], CCCCCCCCC(=O)NCc1cc(OC)c(O)cc1I 22.4 µM [inhibitor, partial curve], COC(=O)c1sccc1NC(=O)c1ccc(OC)cc1OC 31.6 µM [inhibitor, partial curve], COc1ccc(CNc2oc(-c3ccccc3)nc2C#N)cc1 31.6 µM [inhibitor, partial curve], Oc1ccc(Br)cc1/C=N/N1CCCCC1 35.5 µM [inhibitor, single point], COc1ccc(C2(CNC(=O)/C=C\c3ccco3)CCCC2)cc1OC 31.6 µM [inhibitor, partial curve], COc1ccc2nc(-c3cccc(N)c3)[nH]c2c1 25.1 µM [inhibitor, partial curve], O=c1c2ccccc2nc2sc3ccccc3n12 25.1 µM [inhibitor, partial curve], COc1ccc(NC(C)c2cc(Cl)ccc2O)cc1 (configuration not stated) 14.1 µM [inhibitor, partial curve], COc1cc(Cl)cc(/C=C/c2ccc3ccccc3n2)c1OC(C)=O 39.8 µM [inhibitor, single point], COc1ccccc1NC=C1C(=O)OC2(CCCCC2)OC1=O 35.5 µM [inhibitor, single point], COc1ccc(-n2c(N)c(C(=O)NCc3ccco3)c3nc4ccccc4nc32)cc1OC 22.4 µM [inhibitor, partial curve], Cn1c(C(=O)NCc2cccnc2)cc2sc(Cl)cc21 22.4 µM [inhibitor, partial curve], O=c1nc(NC2CCCC2)ccn1Cc1cccc(Br)c1 31.6 µM [inhibitor, single point], O=C(Cn1c(-c2ccccn2)nc2ccccc21)NCCN1CCOCC1 28.2 µM [inhibitor, partial curve], COCc1cc(C)nc2sc(C(=O)N3CCN(c4ccccc4)CC3)c(N)c12 8.91 µM [inhibitor, full curve], COCCOC(=O)C1=C(C)NC2=C(C(=O)CC(C)(C)C2)C1c1cccnc1 (configuration not stated) 22.4 µM [inhibitor, partial curve], CC(C)Cn1c(=O)c2ccccc2n2c(SCC(=O)N3c4ccccc4CC3C)nnc12 (configuration not stated) 25.1 µM [inhibitor, partial curve], CN(C)CCCn1c(N)c(C#N)c2nc(C#N)c(C#N)nc21 22.4 µM [inhibitor, partial curve, poor fit], CC1N(C)c2cccc3cccc(c23)N1C 31.6 µM [inhibitor, partial curve], COC(=O)Nc1cccn(Cc2c(Cl)cccc2Cl)c1=O 25.1 µM [inhibitor, partial curve], COc1ccc(-c2nnc(-c3ccc(OCC(C)C)cc3)o2)cc1 31.6 µM [inhibitor, partial curve], O=C(N/N=C/c1ccc(F)cc1)c1cc(-c2ccco2)nc2ccccc12 20 µM [inhibitor, partial curve], O=C(Cn1ncc2c3ccccc3n(Cc3ccccc3)c2c1=O)N1CCN(c2ncccn2)CC1 39.8 µM [inhibitor, single point], c1ccc(Nc2ncnc3sc4c(c23)CCC4)cc1 35.5 µM [inhibitor, partial curve, poor fit], O=C(CCCSc1ccccc1)Nc1nc(-c2ccco2)c(-c2ccco2)s1 28.2 µM [inhibitor, partial curve], COc1ccc(Cl)cc1C(=O)NNC(=S)NC(=O)c1cc(-c2ccccc2)nc2ccccc12 39.8 µM [inhibitor, partial curve], CC(=O)C(Sc1nn(C)c(=S)s1)C(=O)Nc1ccccc1 (configuration not stated) 35.5 µM [inhibitor, single point], N#C/C(=C/c1cccc(C(F)(F)F)c1)c1nc(CCN2C(=O)c3ccccc3C2=O)cs1 22.4 µM [inhibitor, partial curve], CC(=O)NC(=O)c1ccc(-c2ccc(Cl)cc2)o1 31.6 µM [inhibitor, partial curve], Cc1ccc(-n2c(-c3cccs3)nc3nc4ccccc4nc32)cc1 31.6 µM [inhibitor, partial curve], O=C(C1CCCN(S(=O)(=O)c2cccc3nsnc23)C1)N1CC=C(c2ccccc2)CC1 (configuration not stated) 17.8 µM [inhibitor, partial curve], CSc1nc(NCc2ccco2)c2sc3nc(C(C)C)c4c(c3c2n1)CC(C)(C)OC4 28.2 µM [inhibitor, partial curve], C/C(=C\C(=O)c1ccccc1)Nc1ccc(Br)c(Cl)c1 31.6 µM [inhibitor, single point], CCSc1nc2c(c(-c3ccc(C)o3)c1C#N)CCCC2 31.6 µM [inhibitor, partial curve], CCOC(=O)c1c(C)[nH]c(=S)c(C#N)c1-c1ccc(OC)cc1 28.2 µM [inhibitor, single point], Cc1cnc(CNc2ccnc(-c3ccc(N(C)C)cc3)n2)cn1 31.6 µM [inhibitor, partial curve], COCC(C)NC(=O)CCSc1nc(-c2ccc(OC)cc2)cc(C(F)(F)F)n1 (configuration not stated) 25.1 µM [inhibitor, partial curve]

Activity change, negative = inhibition, inactive:
COc1ccc(OC)c(NC(=O)CSc2nnc(CNC(=O)c3ccco3)o2)c1 -15.7%, Cc1c(NC(=O)c2cccnc2)c(=O)n(-c2ccccc2)n1C 4.69% and -0.99%, O=C(c1ccco1)N1CCN(Cc2nc3ccc([N+](=O)[O-])cc3c(=O)n2-c2ccccc2F)CC1 -16%, CCCCN1C(=O)c2ccc(C(=O)Nc3c(N)n(CCCC)c(=O)n(C)c3=O)cc2C1=O 2.08%, CN(C(=O)COc1cc(=O)n(C)c2ccccc12)c1ccc(Br)cc1 -10.3%, CCOc1cc(/C=C2\CCCC(C(=O)C(F)(F)F)=C2O)ccc1O -12.6%, Cc1ccccc1Nc1nc(N)nc(CSCc2c(C)noc2C)n1 -17.3%, CCCN1C(=O)/C(=C/c2ccncc2)SC1=S -12.5%, O=C(NCCCn1ccnc1)Nc1ccc(Cl)c(Cl)c1 5.15%, CSc1nc(C)c(Cl)c(C)c1C#N -1.63%, CCOC(=O)N1CCC(NC(=O)C(NC(=O)C2CCC(C)CC2)C(C)CC)CC1 (configuration not stated) -4.06%, CC(=O)NCc1c(I)c(NC(C)=O)c(I)c(C(=O)O)c1I -8.09%, CC1(C)CC2CC(C)(CN2c2ncnc3ccccc23)C1 (configuration not stated) -14.1%, CCNc1nc(NC(C)C)nc(N(C#N)CCOc2ccc(Cl)cc2Cl)n1 -17.3%, COc1ccc(NS(=O)(=O)c2cccc(NC(=O)CCS(=O)(=O)c3ccccc3)c2)cc1 -10.7%, O=[N+]([O-])c1ccc(N/N=C\c2cccn2-c2ccccc2)nc1 -1.3%, CCC(=O)N(C)CCc1cc2c(c(OC)c1/C=N/NC(=O)c1ccc(Br)cc1)OCO2 -10.4%, CCCNC(=O)CN(c1ccc(F)cc1)S(=O)(=O)c1ccc2c(c1)OCCO2 -6.17%, COc1ccccc1OCC(=O)Nc1cccc(-c2nc3ccccc3o2)c1 -22.6%, Cc1ccccc1CCN(C(=O)Cn1nnc2ccccc21)C(C(=O)NCC1CCCO1)c1nc2ccccc2n1C (configuration not stated) -13.8%, NC(=O)CCCCn1ccc(NC(N)=NCC(F)(F)F)n1 -11.9%, Cc1oc(/N=C/c2cccc3ccccc23)c(C#N)c1C -17.1%, Cc1n[nH]c(C)c1N1C(=O)c2cccc3cc(Br)cc(c23)C1=O -20.1%, Cc1noc(C)c1S(=O)(=O)N1CCC(C(=O)NC2CCCc3ccccc32)CC1 (configuration not stated) -2.67%, Cc1ccccc1-c1nc(NC2CCNCC2)c2ccccc2n1 -3.59%, CC1(C)N=C(N)N=C(N)N1CCCCc1ccccc1 3.2%, COC(=O)C1CCN(C(=O)c2sc3nc(-c4ccc(F)cc4)cn3c2C)CC1 -22.7%, CCOC(=O)c1c(NC(=O)C2CCCO2)sc(C(N)=O)c1C (configuration not stated) -10.2%
